# Test results reported in the supplement of paper PMC3334620.
# Over roughly 33,000 sequences, “E-score (-0.5 to 0.5)” has its median near -0.041; the highest 2% begin near 0.37. Some of the results follow.
# Target: T1, Ecm22 (UniProt Q05958)
# T1 sequence: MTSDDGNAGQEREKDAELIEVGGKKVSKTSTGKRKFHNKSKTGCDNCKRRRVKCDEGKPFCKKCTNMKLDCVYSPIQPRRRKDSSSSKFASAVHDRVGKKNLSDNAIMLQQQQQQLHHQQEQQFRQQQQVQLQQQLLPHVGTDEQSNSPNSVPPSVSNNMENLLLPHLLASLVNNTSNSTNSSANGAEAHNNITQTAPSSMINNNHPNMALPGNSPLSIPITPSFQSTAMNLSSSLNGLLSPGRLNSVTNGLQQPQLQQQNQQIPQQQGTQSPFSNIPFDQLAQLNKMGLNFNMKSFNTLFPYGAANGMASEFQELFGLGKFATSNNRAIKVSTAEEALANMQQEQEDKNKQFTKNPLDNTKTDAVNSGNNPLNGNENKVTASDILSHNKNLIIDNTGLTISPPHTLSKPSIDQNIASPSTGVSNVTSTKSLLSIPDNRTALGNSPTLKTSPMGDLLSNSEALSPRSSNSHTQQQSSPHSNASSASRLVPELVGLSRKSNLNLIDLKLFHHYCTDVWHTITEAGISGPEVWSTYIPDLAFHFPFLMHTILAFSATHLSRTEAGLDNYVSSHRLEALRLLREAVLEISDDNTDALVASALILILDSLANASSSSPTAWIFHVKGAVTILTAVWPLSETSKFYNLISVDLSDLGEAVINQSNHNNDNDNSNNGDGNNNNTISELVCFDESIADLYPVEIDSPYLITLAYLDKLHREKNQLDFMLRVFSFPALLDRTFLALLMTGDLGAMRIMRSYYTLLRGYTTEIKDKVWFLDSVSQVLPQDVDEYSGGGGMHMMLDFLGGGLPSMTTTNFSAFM
# Assay: PBM E-score (8-mer binding enrichment) (E-score (-0.5 to 0.5)); higher = stronger / more preferred TF binding; most listed sequences are background and not binding sites
# Details: protein concentration: 200 nM; construct: GST-full length
# Summary of the method: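 Universal all-10-mer Agilent arrays, double-stranded by primer extension on fresh or once-stripped slides, were probed with about 100-200 nM GST-tagged yeast transcription factors made by PURExpress. Fluorescent anti-GST detected bound protein, and masliner normalised the scans. E-scores from the Universal PBM Analysis Suite were given to each ungapped eight-base word pooled with its reverse complement.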
row,Sequence,PBM E-score
1,CAGGTACA,-0.23
2,CATATTCC,-0.0731
3,AATCATAT,0.065
4,CTGTGTAA,-0.00046
5,TAGGGAAA,-0.0897
6,CAGGATAC,-0.0107
7,CTTTCATA,0.0788
8,GTGACAAC,-0.147
9,AAGCCTCC,-0.208
10,GCTAGAGA,0.116
11,GAGATGAA,0.0324
12,AAAATAGG,-0.132
13,CCGGCGCC,-0.0524
14,CGACTCTC,0.127
15,GAAAGACC,-0.149
16,ACGGTTCG,0.153
17,CTTGATTA,-0.227
18,GGTGGACA,-0.196
19,AAATTCGG,0.0394
20,CTATATCA,-0.0165
21,ATAGAGTG,-0.0505
22,ACGTTCGA,-0.105
23,AAAATGTA,0.0403
24,ATGACCAG,-0.205
25,AGATGAAC,0.0914

row,Sequence,PBM E-score
1,GGTTGCGA,0.123
2,CGGGGTTA,0.0528
3,AAGTTGCG,0.0127
4,ATAGCAAT,0.0353
5,AATGTTGC,0.101
6,CAGGCACG,-0.112
7,CCCGCTCC,-0.0292
8,AAGGCCGC,-0.126
9,AGATTGGC,-0.0974
10,AGAGCAGG,-0.0878
11,TATCGAGA,0.111
12,CCCAGGGG,-0.27
13,ACAAGACT,-0.0403
14,GGTAGCCA,-0.182
15,TGTGTAAA,-0.0334
16,ACCGTAGT,0.179
17,AACAATCA,-0.0645
18,CAATCACA,0.0358
19,AAACCCAA,-0.203
20,ATGAATTC,-0.0262
21,ATCATAGG,-0.0957
22,CACTTTCC,-0.38
23,ACCCGAAG,0.0561
24,GCGTTAGC,-0.158
25,AGGTGTCA,-0.142

row,Sequence,PBM E-score
1,TGTTCAAA,-0.139
2,GGGTGCGA,0.199
3,AAAAATCA,-0.0853
4,GTTCAGGA,0.126
5,CCATACAA,-0.0579
6,CCGAAAAA,0.128
7,CAAATTAC,0.023
8,GAGACGAC,0.16
9,CTTAGGAA,-0.00034
10,TCAACTAA,-0.0383
11,GACGTTAA,0.0928
12,AGAGTAAC,-0.0497
13,ACGATAGG,0.208
14,AACTTAGG,-0.12
15,GTCTGGCA,-0.243
16,ACGGCAGG,0.0317
17,GTATATGA,0.207
18,ATTTACTA,0.0632
19,CCGGATAA,0.0584
20,ATTTTTCG,0.0816
21,GGGTTCAA,-0.198
22,CTCTCCCA,-0.217
23,GTTGGAGA,-0.0819
24,GTTGTGAA,-0.0354
25,CTATTGTC,-0.125

row,Sequence,PBM E-score
1,ACGGGAAT,0.255
2,ACCAAGTA,0.143
3,GATGGAAA,-0.0526
4,TCCTCTCA,-0.232
5,CTGTTCGC,0.13
6,GTTACTAA,0.101
7,GCCCACCC,-0.1
8,CTGGGGTA,-0.237
9,GTCGGGTA,0.228
10,GGGTCTAA,-0.254
11,CTTAGATA,-0.195
12,ATACCGTA,0.295
13,ATGGCCAT,-0.237
14,AATCGCCT,0.0224
15,AACGCTCG,0.247
16,CCAAACTC,-0.0279
17,GATGGGGC,-0.174
18,CGACCTAC,0.0692
19,ACCCGCGC,-0.0239
20,GGCCTACA,-0.101
21,CCGTACAG,0.388
22,CGGGGAAC,0.198
23,AAAATCGC,0.127
24,AACTATAC,0.257
25,AACGTTAC,0.136

row,Sequence,PBM E-score
1,GAAGATCA,0.142
2,GCGATGCA,-0.0198
3,CGAACAGA,0.101
4,ACCAAACC,-0.123
5,GTCGCGAA,0.26
6,ACCGACAT,0.217
7,TATCCGAA,0.261
8,CCGGGTTC,0.136
9,GAGAGCCA,-0.0861
10,AAGATCAC,0.0218
11,CCAGGCTC,-0.096
12,GCCAGGTA,-0.0152
13,AAGGGCTA,-0.189
14,CGAGGATC,0.23
15,CCTGGGAG,-0.267
16,GGGTGACC,-0.191
17,CAAAACAA,-0.34
18,GACATTCC,-0.0859
19,CACTCATG,-0.207
20,ACGCACAG,0.0346
21,CTTGCACC,-0.0766
22,CCGCCCAC,-0.0401
23,AGGCGCTA,-0.112
24,CACCGTTA,0.0997
25,AGGCTAAA,-0.111

row,Sequence,PBM E-score
1,AAATATTG,0.102
2,CCGGCAAG,-0.0541
3,GTCTATGA,-0.0211
4,GGCGACAC,-0.00378
5,CGTCTCGA,0.122
6,AAGGATCC,-0.155
7,AATGATTA,-0.0356
8,AGTTCATC,-0.237
9,AAGGATGT,-0.19
10,GGCGGGTA,-0.0663
11,CAGTTGGC,-0.247
12,ACGCGATA,0.182
13,GGCCATTA,-0.168
14,CGTGTACC,0.132
15,CACATACG,0.335
16,GTTGCCAA,0.0517
17,AATATCGG,0.191
18,CGGTCTGA,-0.0653
19,AATCGCAG,-0.0371
20,CGAGGAAC,0.348
21,ATTCTGGA,-0.0488
22,ACTATTAA,0.00323
23,AGAAATGC,-0.0506
24,AAGCAGCA,-0.0456
25,ATTAGTCA,0.00238

row,Sequence,PBM E-score
1,GTGCCCCA,-0.209
2,AATTTCTA,0.0435
3,AAACCCGG,0.0318
4,TCAGACAA,-0.173
5,CAGATAAA,-0.0725
6,GGGCGATA,-0.16
7,ACCTAGCT,-0.226
8,AATGGAGT,-0.31
9,AAAATCAT,0.0355
10,ATGTCCTG,-0.132
11,ATTGGATG,0.052
12,GATCTTTA,0.0747
13,AGGTCTTC,-0.211
14,GACCACCA,-0.196
15,TAGACAAA,-0.169
16,CCAGGCCA,-0.254
17,AATGTTCG,0.123
18,ATCTCTAG,-0.0781
19,ATACTTTA,-0.0928
20,CCGTCCCC,-0.288
21,CTGCATAC,0.117
22,CGGTACCC,-0.0308
